The list shows a part of the results. Construct or isoform of the protein are uncertain.
molecular target: GST-SBP-ILF3 (Homo sapiens) (UniProt Q12906); assay: targeted RNA Bind-n-Seq; conditions: RBNS binding buffer: 25 mM Tris pH 7.5, 150 mM KCl, 3 mM MgCl2, 0.1% Tween, 0.5 mg/mL BSA, 1 mM DTT; 27 nM protein, 750 pM RNA pool; temperature not stated; high values mean tight binding; sequences stand for … in GGGUAAAAGCGAGGUGAA…CGGGACAAGUAUUAUGGG

| Sequence | binding signal (log2 fold change) |
| --- | --- |
| UUUUUUUUUUGAGAUCGAAGCGAUCUUCUA [tttttgagapaired] | -0.104 |
| UUUUUUUUUUGAGAUGGGAUCCGUCUCCGG [tttttgagapaired] | 0.421 |
| UUUUUUUUUUGAGACUGGUCCAGUCUCCAG [tttttgagapaired] | 0.847 |
| GGUUGUUGUGUUGGUCCCUAACACAACGAC [gtspaired] | -0.453 |
| UUCUCUCCUCCUCCGCUGGAGGGGGGGAGA [ctspaired] | -0.828 |
| UUUUUUUUUUGAGAACGUAACGUUCUCCAG [tttttgagapaired] | 0.286 |
| GUGGUGUGUGUUGGCCCCUAACACAUACUA [gtspaired] | -0.176 |
| UUUUUUUUUUGAGAGCGUAGCGUUCUCCAG [tttttgagapaired] | 0.583 |
| GGUGUGUGUGUUGGUGCCUAACACACGCGC [gtspaired] | -0.259 |
| UUUUUUUUUUGAGAGGGAUACCCUCUCCUG [tttttgagapaired] | 0.28 |
| GUGGUGUGUGUUGGUGCCUAACACACGCCG [gtspaired] | -0.571 |
| GUGUUGUGUGUUGGCGCCUAACACACAGCA [gtspaired] | -0.446 |
| UUUUUUUUUUGAGAAGGGAUCCUUCUCCUA [tttttgagapaired] | -0.176 |
| UUUUUUUUUUGAGAGGGUGACCCUUUCCAG [tttttgagapaired] | -0.0207 |
| UUUUUUUUUUGAGAUCGAAACGGUCUCCAG [tttttgagapaired] | 0.131 |
| GGUUGGUGUGUUGGCCUCUAACACACCAGC [gtspaired] | -0.727 |
| UUUUUUUUUUGAGACUGCAGCAGUCUCCGG [tttttgagapaired] | 0.578 |
| UUUUUUUUUUGAGACCGAAUCGGUCUCCGG [tttttgagapaired] | 0.322 |
| UUUUUUUUUUGAGACGGUGACCGUUUCCUG [tttttgagapaired] | 0.713 |
| UUUUUUUUUUGAGACCGUCACGGUUUCCAG [tttttgagapaired] | 0.559 |
| UUUUUUUUUUGAGAUCGAGUCGAUCUCCGG [tttttgagapaired] | 0.292 |
| UUUUUUUUUUGAGAACGGAGCGUUCUCCUA [tttttgagapaired] | 0.252 |
| UUUUUUUUUUGAGAGGGACCCCCUCUCCGG [tttttgagapaired] | 0.534 |
| GUGGUGUGUGUUGGUACCUAACACAUACCA [gtspaired] | -0.696 |
| UUUUUUUUUUGAGACUGAUACAGUCUUCUA [tttttgagapaired] | 0.176 |
| UUUUUUUUUUGAGACUGAAUCAGUCUCCGG [tttttgagapaired] | 0.106 |
| UUUUUUUUUUGAGACGGAACCCGUCUCCGG [tttttgagapaired] | 0.416 |
| UUCCUUCUUCCUCCUAGGGAGGGAGAGGGA [ctspaired] | -0.694 |

Source: paper PMC5892938
